# Laboratory results: the supplement of paper PMC4604168 (melanoma cell lines)
# The list shows a part of the results. Many values rest on one well or one pass, so single values are uncertain.
# How the values were obtained:
# Assay in all cases: cell count relative to DMSO control; melanoma cells; higher = more viable cells
# Settings in all cases: library dose: low library concentration; 72 h
# WM115 = system: WM115
# WM1716 = system: WM1716
# WM1745 = system: WM1745
# WM3526 = system: WM3526
# WM3619 = system: WM3619
# WM451Lu = system: WM451Lu
# 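Note: cell number obtained by counting DAPI-stained nuclei in high-throughput microscope images with image analysis software, screen run in 1,536-well plates.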
SMILES,cell count (WM115) [%],cell count (WM1716) [%],cell count (WM1745) [%],cell count (WM3526) [%],cell count (WM3619) [%],cell count (WM451Lu) [%]
"Cc1cc(Nc2cc(N3CCN(C)CC3)nc(Sc3ccc(NC(=O)C4CC4)cc3)n2)n[nH]1 [Tozasertib] + CC(=O)c1c(C)c2cnc(Nc3ccc(N4CCNCC4)cn3)nc2n(C2CCCC2)c1=O [palbociclib] (first compound 0.006 µM, partner dose 0.04 µM)",69.5,59.2,78.5,59.1,65.7,74.8
"N#CC[C@H](C1CCCC1)n1cc(-c2ncnc3[nH]ccc23)cn1 [ruxolitinib] + Cc1nc(Nc2ncc(C(=O)Nc3c(C)cccc3Cl)s2)cc(N2CCN(CCO)CC2)n1 [dasatanib] (first compound 1 µM, partner dose 0.004 µM)",86.1,89.5,65,93.6,97.1,87.4
"CC[C@]1(O)C[C@H]2CN(CCc3c([nH]c4ccccc34)[C@@](C(=O)OC)(c3cc4c(cc3OC)N(C=O)[C@H]3[C@@](O)(C(=O)OC)[C@H](OC(C)=O)[C@]5(CC)C=CCN6CC[C@]43[C@@H]65)C2)C1 [vincristine] + CC(C)(C)c1cnc(CSc2cnc(NC(=O)C3CCNCC3)s2)o1 [SNS-032] (first compound 0.0001 µM, partner dose 0.01 µM)",57.1,38.6,82.1,92.1,81.4,62
"Cc1cc(Nc2cc(N3CCN(C)CC3)nc(Sc3ccc(NC(=O)C4CC4)cc3)n2)n[nH]1 [Tozasertib] + Cn1cnc2c(F)c(Nc3ccc(Br)cc3Cl)c(C(=O)NOCCO)cc21 [selumetinib] (first compound 0.006 µM, partner dose 0.015 µM)",97,96,89.7,80.9,83.5,99
"N#CC[C@H](C1CCCC1)n1cc(-c2ncnc3[nH]ccc23)cn1 [ruxolitinib] + O=C(O)c1ccc(-c2c[nH]c3ncc(-c4ccccc4)cc23)cc1C1CCCC1 [GSK650394] (first compound 1 µM, partner dose 0.16 µM)",112,93.4,108,117,78.4,79.6
"Cc1cc(Nc2cc(N3CCN(C)CC3)nc(Sc3ccc(NC(=O)C4CC4)cc3)n2)n[nH]1 [Tozasertib] + CS(=O)(=O)CCNCc1ccc(-c2ccc3ncnc(Nc4ccc(OCc5cccc(F)c5)c(Cl)c4)c3c2)o1 [lapatinib] (first compound 0.006 µM, partner dose 0.8 µM)",90.8,95.6,88.5,77,102,102
"N#CC[C@H](C1CCCC1)n1cc(-c2ncnc3[nH]ccc23)cn1 [ruxolitinib] + COc1ccc2c(c1)CCC1C2CCC2(C)C(NCCCCCCN3C(=O)C=CC3=O)CCC12 [U73122] (first compound 1 µM, partner dose 0.4 µM)",108,95.5,96,61.6,94.1,105
"Cc1cc(Nc2cc(N3CCN(C)CC3)nc(Sc3ccc(NC(=O)C4CC4)cc3)n2)n[nH]1 [Tozasertib] + N#CC[C@H](C1CCCC1)n1cc(-c2ncnc3[nH]ccc23)cn1 [ruxolitinib] (first compound 0.006 µM, partner dose 1 µM)",109,113,93.1,120,89,90.1
"CC[C@]1(O)C[C@H]2CN(CCc3c([nH]c4ccccc34)[C@@](C(=O)OC)(c3cc4c(cc3OC)N(C=O)[C@H]3[C@@](O)(C(=O)OC)[C@H](OC(C)=O)[C@]5(CC)C=CCN6CC[C@]43[C@@H]65)C2)C1 [vincristine] + O=c1[nH]nc(Sc2ncc([N+](=O)[O-])s2)n1-c1ccc2c(c1)OCCO2 [BI78D3] (first compound 0.0001 µM, partner dose 0.2 µM)",67.1,47.5,97.1,86.4,57.7,52.9
"CC[C@]1(O)C[C@H]2CN(CCc3c([nH]c4ccccc34)[C@@](C(=O)OC)(c3cc4c(cc3OC)N(C=O)[C@H]3[C@@](O)(C(=O)OC)[C@H](OC(C)=O)[C@]5(CC)C=CCN6CC[C@]43[C@@H]65)C2)C1 [vincristine] + Oc1nc(-c2ccc(C(F)(F)F)cc2)nc2c1CSCC2 [XAV939] (first compound 0.0001 µM, partner dose 2 µM)",60.7,32.8,73.7,62.9,63.1,65.7
"Cc1cc(Nc2cc(N3CCN(C)CC3)nc(Sc3ccc(NC(=O)C4CC4)cc3)n2)n[nH]1 [Tozasertib] + CCCCCCCCCCCC1=C(O)C(=O)C=C(O)C1=O [Embelin] (first compound 0.006 µM, partner dose 1.2 µM)",84,99,99.6,113,109,102
